Reference: PubChem BioAssay AID1745845 (National Center for Advancing Translational Sciences (NCATS), 2022)
The whole screen tested about 360,000 compounds, of which about 2,600 (0.72%) were called active. Inconclusive results, whose numbers are uncertain, are shown with a selection of clear calls. Calls follow the shape of the dose curve; as a rule, active = well fitted inhibition curve with a large enough effect; inconclusive = small, poorly fitted or top-dose-only effect; inactive = no such curve, though single readings can be large or run the other way. Potencies of inconclusive entries are doubtful fits and often do not repeat.

Assay: Primary qHTS for Inhibitors of ATXN expression; also: nearly all actives have a fitted effect of over 55% in size
Settings: HEK-293 ATXN2-luciferase reporter, luminescence, 24 h; series mostly up to 57 µM
Method in brief: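 ATXN2-luciferase reporter cells (luciferase flanked by upstream and downstream ATXN2 gene portions) were treated 24 h at 37 °C with compounds at up to 57 uM. SteadyGlo luminescence gave expression; GF-AFC fluorescence gave viability.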
Potency is read from the fitted curve at half-maximal effect; tags tell the direction and shape of the fitted curve.

Structure (SMILES) | Potency
COc1ccc(CC2NCC(O)C2OC(C)=O)cc1 (stereo unspecified) | active: 0.0106 µM
O=C(N[C@H]1N=C(c2ccccc2F)c2cccc3c2N(CC3)C1=O)c1cc2ccccc2[nH]1 | inactive
O=C(CBr)Nc1ccc(Cl)cc1C(=O)c1ccccc1F | inactive
O=c1[nH]c2ccccc2n1C1CCN(C(CCc2ccccc2)c2nnnn2C2CCCCC2)CC1 (stereo unspecified) | active: 14.1 µM
CCN(CC)CCN=Cc1c(O)n(Cc2ccco2)c(=O)[nH]c1=O | inconclusive: 35.5 µM [inhibitor, single point]
Cc1cccc(N=C2c3cc([N+](=O)[O-])ccc3-c3c2cc([N+](=O)[O-])cc3[N+](=O)[O-])c1 | inconclusive: 11.2 µM [inhibitor, partial curve]
COc1cccc(NP(=O)(Oc2ccccc2Cl)Oc2ccccc2Cl)c1 | inconclusive: 29.9 µM [inhibitor, partial curve, poor fit]
COc1cccc(-n2c(/C=C/c3ccccc3O)nc3ccccc3c2=O)c1 | inconclusive: 4.47 µM [inhibitor, partial curve, poor fit]
COc1ccc2c(c1)C(c1ccc(N(CCCl)CCCl)cc1)=NCC2 | inconclusive: 28.2 µM [inhibitor, partial curve, poor fit]
CC(C)NS(=O)(=O)c1ccc(OCC(=O)N2CCN(Cc3ccc4c(c3)OCO4)CC2)c(Cl)c1 | inactive
Cc1ccc2c(c1)C1CN(C)CCC1N2C(=O)/C=C/c1ccc2c(c1)OCO2 (stereo unspecified) | inconclusive: 25.1 µM [inhibitor, single point]
O=C1CN=C(c2ccccc2Cl)c2cc(Cl)ccc2N1Cc1cccc(Cl)c1 | inconclusive: 39.8 µM [inhibitor, single point]
CC(=O)OC(C)(C)/C=C/C(=O)C(C)(O)C1[C@H](O)C[C@@]2(C)C3CC=C4C(CC[C@@H](O)C4(C)C)[C@]3(CO)C(=O)C[C@]12C (stereo partly specified) | inconclusive: 42.3 µM [inhibitor, partial curve, poor fit]
CC(=O)O[C@H]1C[C@@H]2CC[C@@H]3[C@H](CC[C@]4(C)C(=O)CC[C@@H]34)[C@@]2(C)C[C@@H]1OC(C)=O | inactive
CC(C)OCCCNC(=O)c1c(N)n(Cc2cccs2)c2nc3ccccc3nc12 | inconclusive: 28.2 µM [inhibitor, partial curve, poor fit]
N=c1c2c(-c3ccccc3)c(-c3ccccc3)n(Cc3ccccc3)c2ncn1C1CCC(O)CC1 (stereo unspecified) | active: 24.3 µM
COc1ccc(-n2nc(C(=O)NCC(=O)N3CCC4(CC3)OCCO4)c3ccccc3c2=O)c(OC)c1 | inactive
Cc1ccc2c(C)c3ccc4ccccc4c3c[n+]2c1 | inconclusive: 25.1 µM [inhibitor, single point]
COc1ccc(CCNCc2ccc(F)cc2)cc1OC | inconclusive: 3.16 µM [inhibitor, full curve, poor fit]
Clc1cccc(N2Cc3cc(-c4ccccc4)ccc3-n3nncc3C2)c1 | active: 22.4 µM
COC(=O)C1=C(c2ccc(-c3ccccc3)c(F)c2)C[C@@H]2CC[C@H]1N2C(=O)N1CCC(O)CC1 | inconclusive: 20 µM [inhibitor, partial curve]

Structure (SMILES) | Potency
S=P(N1CCCCCC1)(N1CC1)N1CC1 | inconclusive: 17.8 µM [inhibitor, partial curve, poor fit]
COc1ccc(CN2Cc3cnnn3-c3ccccc3C2C#N)cc1 (stereo unspecified) | inconclusive: 22.4 µM [inhibitor, single point]
COc1ccc(CCNC(=O)c2c(N)n(CCN3CCOCC3)c3nc4ccccc4nc23)cc1 | inconclusive: 39.8 µM [inhibitor, single point]
O=C1NC(=O)C(Cc2ccccc2)(Cc2ccccc2)C(=O)N1Cc1ccccc1 | inactive
Cc1cccc(OP(=O)(NCc2ccccc2)Oc2cccc(C)c2)c1 | inconclusive: 28.2 µM [inhibitor, partial curve, poor fit]
CN(C(=O)Oc1cccc2cccnc12)c1ccccc1 | inactive
CCc1cc2c(s1)-n1c(C)nnc1CN=C2c1ccccc1Cl | inactive
COc1ccc(-n2nnnc2C(c2cccs2)N2CCC3(CC2)C(=O)NCN3c2ccccc2)cc1 (stereo unspecified) | inconclusive: 22.4 µM [inhibitor, single point]
CCOC(=O)[C@]12Cc3cc(C)ccc3[C@H]1N(Cc1ccccc1)C(=O)c1cc(F)c(F)cc12 | active: 17.8 µM
Clc1ccc(C[n+]2c(-c3ccccc3)cc(-c3ccccc3)cc2-c2ccccc2)cc1 | inconclusive: 3.98 µM [inhibitor, full curve]
O=C1C2(Cl)C3(Cl)C4(Cl)C(Cl)(Cl)C5(Cl)C3(Cl)C1(Cl)C5(Cl)C24Cl (stereo unspecified) | inconclusive: 28.2 µM [inhibitor, single point]
O=P(O)(O)CN1CCNCCN(CP(=O)(O)O)CCNCC1 | inconclusive: 5.01 µM [inhibitor, full curve]
O=C1NC(=O)N(Cc2ccco2)C(=O)/C1=C\c1ccc(-c2ccc(F)cc2)o1 | inconclusive: 39.8 µM [inhibitor, single point]
O=C(Cc1ccccc1)Oc1ccc(N2C(=O)C3CCCCC3C2=O)cc1 (stereo unspecified) | inactive
O=C(CCCN1CCC(n2c(=O)[nH]c3ccccc32)CC1)c1ccc(F)cc1 | inconclusive: 39.8 µM [inhibitor, partial curve, poor fit]
CCN1C(=O)C(=Cc2ccc(C)s2)C(=O)N(CC)C1=S | inconclusive: 39.8 µM [inhibitor, single point]
N#CC(C#N)=NNc1ccc(-n2ccc(C(F)(F)F)n2)cc1 | inconclusive: 6.31 µM [inhibitor, full curve, poor fit]
C[C@]12CC[C@H]3[C@@H](CCC4=CC(=O)CC[C@@H]43)[C@@H]1CC[C@@H]2OC(=O)CCC1CCCCC1 | inconclusive: 35.5 µM [inhibitor, partial curve]
N#Cc1c(Br)n(C2OC(CO)C(O)C2O)c2ncnc(N)c12 (stereo unspecified) | active: 2.51 µM
CC1=CC2OC3CC4OC(=O)C=CC=CC(=O)OCCC(C)C(O)C(=O)OCC2(CC1O)C4(C)C31CO1 (stereo unspecified) | inconclusive: 0.0095 µM [inhibitor, full curve, poor fit]
